# Assay results reported in the supplement of paper PMC11417369.
# ± gives the standard deviation of the averaged measurements. The list shows a part of the results.
# System: PfAP2-I AP2 domain 3 (GST-tagged)
# Assay: gcPBM binding intensity (ln(normalized median fluorescence intensity)); higher = stronger DNA binding
# Method in brief: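 Each value is the highest Masliner-normalised natural-log median intensity across replicate spots of either orientation of a probe. The probes were primer-extended double-stranded 36-bp intergenic genomic sequences on an Agilent 4 × 180k array, alongside negative controls, exposed for 1 h to GST-tagged P. falciparum DNA-binding domains expressed in E. coli. Bound protein was picked up with Alexa488 anti-GST antibody and scanned at 488 nm.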
row,Sequence,gcPBM binding intensity (ln)
1,TATGTAAATCTCTTAAGAATTCGCTATATCTCTTTT [CACACA_negctrl_site1180],7.3 ± 0.63
2,ATATAAGCGTATACATGTACATATATATCTTTGTAA [XGTACX_site2742],7.79 ± 0.36
3,AGGCTACGAATAGAATGTACCCGAAATAAGGAATAT [XGTACX_site6012],8.03 ± 0.72
4,GCAAGGAAATAATTGATAATATATATATATATATAT [GTGCAC_negctrl_site400],9.13 ± 0.59
5,GAGTAAATAAATAAATGTACATATATATATATTATC [XGTACX_site8466],7.75 ± 0.44
6,TATAATAAATATTAACGTACTCATATATATATATAT [XGTACX_site3871],9.25 ± 0.27
7,ATACATAAATATTGATGTACTCATTTAATATATTAT [XGTACX_site3992],7.63 ± 0.35
8,AATATATATATATATATATATTTTTGTTAGAATATG [XGTACX_negctrl_site58],8.04 ± 0.18
9,TTATAATATGGATACACACACATATATAAATATATA [CACACA_site5314],7.68 ± 0.38
10,AAAAAATAAATAAATACACACAAATCTATATTTATA [CACACA_site7243],7.35 ± 0.24
11,ATCTAAATTTTTCCATGTACATATACTTTTATGCAT [XGTACX_site2683],8.43 ± 0.59
12,AAAATATGTAGACACATACACACATATATATATATA [CACACA_site1221],9.53 ± 0.48
13,TATATGTATGTTTGTTTGTTTGTATTTTTTAAGGTA [XGTACX_negctrl_site619],7.73 ± 0.34
14,TTTTCTTTTTCCAAAAGTACGTAATTTAAACATTTT [XGTACX_site2066],7.83 ± 0.43
15,TTTTTTTTTTCAAATGCATGCAAAAAAAAAAAAATA [TGCATGCA_site945],7.87 ± 0.52
16,AAATTAGAAATACCTACACACTTATCAAAATAAATT [CACACA_site7132],7.47 ± 0.62
17,ATAATTATGAAGCATACATGCATGTCCTGGCTTAAA [TGCATGCA_site491],7.69 ± 0.73
18,AAATTAAATAAATTTACACACTAAAAATTACAGATA [CACACA_site4722],7.64 ± 0.47
19,CATTATGTCGTAAATACACACATACAGATACATACA [CACACA_site4880],7.89 ± 0.43
20,TTTTTATTTGGTTGTGTACACATATATATATATATA [CACACA_site5844],9.46 ± 0.25
21,AAAAAACACCCACATACACACAAAAATGTTATAAAT [CACACA_site81],7.86 ± 0.59
22,GTTATATATAATAATTGTACAAAATTAAATATAACT [XGTACX_site4189],7.63 ± 0.4
23,CTAAGAAAAAATAAAGCACACAAATATTTTAAAAAC [CACACA_site9094],9.475 ± 0.064

row,Sequence,gcPBM binding intensity (ln)
1,AAAACACAAAAAAAATGTACACATATATATATATAT [XGTACX_site8509],9.32 ± 0.12
2,TAACTATATTTTTACTGTACAAAAAAATTAAATAAT [XGTACX_site1765],7.84 ± 0.37
3,ATATTAATTCTACATTGTACACATGAAAAAATATAA [XGTACX_site8759],8.04 ± 0.3
4,CAATCTTTTACGAATACACACACATAAAGAAAAAAA [CACACA_site8367],7.91 ± 0.61
5,AATTTTTTATATGTCACACATTTGTTATTATTATTA [CACACA_site4197],7.9 ± 0.62
6,TTAAATAAATAAAAATGTACATGCATATATAAATAT [XGTACX_site8908],7.88 ± 0.81
7,AAAAAGAATAAATAAATATAAATAAATAAATATATA [GTGCAC_negctrl_site336],7.2 ± 0.28
8,ACATATAGAAGTATCTATAAACAGTGATAGCATTTT [CACACA_negctrl_site1122],7.54 ± 0.55
9,AAAAAAAAATGTCATGGTACACAATTTTTTCTTTTT [XGTACX_site4505],7.4 ± 0.55
10,TAAAGTAAAACAAGGTAAGGTTTTTCTTTTTCTTTT [CACACA_negctrl_site1271],7.26 ± 0.57
11,AATAAATTATGAACGGTGCAGGAAAAATTGTAACAT,9.67 ± 0.47
12,TAGATTATTTTATTTAGTACATAAAAAAGTAAGACC [XGTACX_site7889],8.11 ± 0.4
13,TGAAGTGCAAAATACTGTACGTAATGTGCTTGTTAC [XGTACX_site4512],10.1 ± 0.38
14,AAACATAAGGGACACACACACATATATATATATATA [CACACA_site5920],9.2 ± 0.28
15,CAAAAAAACAAACACACACACACACCGATATATATA [CACACA_site9218],8.21 ± 0.56
16,ATCACTTGAGAATAATTACATTAATATATATTTATG [TGCATGCA_negctrl_site581],7.33 ± 0.52
17,CTTTTTAATTAATACACACACACACCCATATATATA [CACACA_site2292],8.45 ± 0.54
18,GGGAAAGAACCATATACATGCATATTTACCGTTAAA [TGCATGCA_site519],7.81 ± 0.68
19,CATATACATACACATACACACATACAGACATACACA [CACACA_site6919],8.12 ± 0.3
20,TGAAATTTTATTAATGTGCACATATATTTATTGTTC,9.77 ± 0.26
21,GTAAAAAAAAAAAAATGTACACATATATATAATATA [XGTACX_site159],7.67 ± 0.35
22,TTTTTTTTTTTTAATACACACATATATATATTTATT [CACACA_site3994],8.21 ± 0.64
23,AACATAATTAAAAATTGTACAGAATTTCAATCGAAA [XGTACX_site7542],7.52 ± 0.47

row,Sequence,gcPBM binding intensity (ln)
1,ATAAAAATGTATATATGTACATATATATATATATAT [XGTACX_site1505],9.64 ± 0.24
2,ATTGTCTTTTAATAGTGTACTTATTTTAAATATTGC [XGTACX_site8517],8.2 ± 0.37
3,TTTCTAATATATAAAGTGCAATACCATTCAGAGTTA,10.4 ± 0.51
4,AAGAAAATAAAATAAAATAAAATAAAATAAAAATAT [TGCATGCA_negctrl_site493],7.7 ± 0.57
5,TATAATTTATAAGTAGTGCATTTCTTTTCATTTTTA,10.3 ± 0.3
6,TTTTATAGAGTGTATACATGCAATACCACATAAAAT [TGCATGCA_site476],8.07 ± 0.66
7,ATATGGAAGAATTAAAGTACTTAAAAAAATGTCAGT [XGTACX_site6837],8.34 ± 0.64
8,TTATTATATATAAGTAGTACAAACAATTAAGAGATA [XGTACX_site4009],8.31 ± 0.092
9,TGATGATATAAAAACACACACATATAACATAATACT [CACACA_site6687],7.83 ± 0.67
10,TTTCTTTCTATTGTTATATTTATAATAATTATAATT [XGTACX_negctrl_site215],7.54 ± 0.59
11,TATAAAATTACATTTTGTCATTTATTTTTTCCCACT [TGCATGCA_negctrl_site110],7.5 ± 0.28
12,TGTTTAAGTGTTTTTAGTACTTATAAAAATATTATC [XGTACX_site7379],7.8 ± 0.28
13,ATATTATCCCTATTTGCACACAAGAGTAATTTTTTA [CACACA_site3908],9.805 ± 0.049
14,CCTATAAAACCATATACACACATATATATAAAAAAA [CACACA_site4013],7.74 ± 0.44
15,TGTTTCTAAAAATTTACACACAAAATATTTCTACAT [CACACA_site4098],7.62 ± 0.56
16,TTATACGATAATATGACACACAATACAAAAATGTAA [CACACA_site1918],7.78 ± 0.42
17,AAATAAAATATTACATGTACATGTTCATAAAAAAAA [XGTACX_site1067],7.71 ± 0.42
18,ATAAATTAATGGAGAAATCTTATGAATTTATTTTAA [CACACA_negctrl_site1068],7.13 ± 0.67
19,TATTGTAGTCATGCACGTACAAAAGGAAAGTTAAAA [XGTACX_site4446],10 ± 0.73
20,AATATATACATATATACACACACATATATTATATAT [CACACA_site7980],7.83 ± 0.44
21,TAAATATAAGTGTACATACACACTTTACAATCTCAT [CACACA_site3006],7.88 ± 0.2
22,AATAAAAAGGAACACACACACACACCGATATATATA [CACACA_site5895],8.27 ± 0.73
23,TACATACACAGACACACACACATATATATATATATA [CACACA_site3557],9.34 ± 0.73

row,Sequence,gcPBM binding intensity (ln)
1,AAAGAAGAAAAATATAGTACAGGGCACATGTCCTGT [XGTACX_site6293],7.76 ± 0.74
2,AAAAAAAAAAAAATTGCATGTAAATGAAATAATAAA [TGCATGCA_site116],7.5 ± 0.47
3,TTATTTTTATATTTCACACACATATACTTTTACATA [CACACA_site4097],7.96 ± 0.49
4,ATTTAAATTTAAAAAACACACATAATATGATATATA [CACACA_site1973],7.6 ± 0.37
5,CAATTTTACTCATAAACACACATATATATGTTATTA [CACACA_site3152],7.66 ± 0.53
6,ATATGTGTTAAAAATGCACACAAAAAAATATACATA [CACACA_site7988],8.635 ± 0.078
7,CTTATTTTATTCGAATGTACATAATTGTTAGACATT [XGTACX_site8583],7.77 ± 0.42
8,TTTTACAAATGTTTTACACACACATAATTGTATCAA [CACACA_site4166],7.82 ± 0.61
9,AAAAAAAGGATGTACGTATCATAATTTTATTTTATA [CACACA_negctrl_site1543],7.78 ± 0.17
10,ATGGTTTAATTATATACACACTCGAAAATAACGACA [CACACA_site3258],7.84 ± 0.52
11,TGATATTATATTGTGATGCACTTTAAAAATATAAAG [GTGCAC_site9509],9.12 ± 0.17
12,CTTAAGTAAAATTAAAGTACATGGACAAAAAATATA [XGTACX_site7900],8.1 ± 0.31
13,TATCTCATGCGCACAAAAATATATGCAAAGAGTATA [TGCATGCA_negctrl_site201],9.02 ± 0.54
14,AATAATAACAAATGAACACACATATAGATGAGCAAA [CACACA_site7076],7.59 ± 0.59
15,TGGGTATATATAAAAGGTACACAAAATGAAGATATA [XGTACX_site4994],8.02 ± 0.64
16,TTTTCTGTGTTTTTGGGTACACACAAATAGCTTGTA [XGTACX_site8553],8.14 ± 0.44
17,TAATTTCTTATGTATTGTACAAATAATATATTATAT [XGTACX_site1037],7.78 ± 0.35
18,GAGCCCAAAAAATTAGGTACGTATAAAGAGGTATTT [XGTACX_site5348],7.78 ± 0.7
19,TTTGTGTTGTATTTTTGTACATAAAATAAACTTAAA [XGTACX_site4637],7.96 ± 0.26
20,TCTTTTTTCATATTTTCACACATGTCTTTATATTTA [CACACA_site6025],8.28 ± 0.65
